Experimental data: the RNAGym collection of RNA variant scans (doi:10.7554/elife.90254)
Read counts are not given, so values of variants with three or more changes are uncertain.

B1: LINE1-full (parent)
chain: UACGUAGGUGGUUUUCCCCUGAUAGUGCUAAGGGGGCCUGGAAGUUUGGACUGGGCAGAGCUCAACACAGCGUGGCAAAGUGGCUGUGGCUAGACUGCCUCUCUGGAUUCCUCGUCACUCAGCAGGGCAUCUCUGAGAGAAAUGCC

Variants of: B1
Test: self-cleavage, relative activity (ratio to wild type); higher = more cleavage; in vitro, sequencing; the parent is a self-cleaving ribozyme

Variant | self-cleavage
A65G C131U U134C | 0.16
U1C A65G A136G | 0.19
C56U G74A A79G U108C | 0.17
A69G U134A A140G | 0.08
U12A U46C A77G G97A | 0.67
A42G U62C A69G G93C | 0
U9C A57G U81A | 1.81
U13C A59G U73C | 0.64
U9C A24U C111U | 0.8
U9G U39A A57G | 1.47
A79G G83A U109C | 0.44
A57U G86A A142G | 0.02
U23C G72A C76U A79G | 1.05
U13A A31C U62C U115C | 0
U13A A124G U134C A141G | 2.3
A77G A79G U119C A140G | 0
A42U U62G A79G A129U | 0.05
A6G U13C U112C A138C | 1.71
U12A A50G U102A | 2.18
U14C U45C A129G | 2.04
U12C U73C C113A A141G | 1.99
U85C C120U A141G G144A | 0.1
U96C A107C A140G | 0
U81G U85C U108C | 0

Variant | self-cleavage
A6G U62A A92C U119G | 0.54
A43U U134G G144C | 1.3
U52C G86A U100C A129G | 0.13
G36A U47C U132A | 0.92
U5A C19A U39A G49A A50G C90U A138G | 0.1
U5C U9C U20C U109C | 1.53
U20G A57U A92G U115A U134A A142G | 0.24
U14C A43G A69G | 0.34
U5C A6U A94U | 0.61
A2G A24G C37U U47C A79G | 0
C51A A129G A141G A142G | 1.11
U73C A78U U134C | 2.14
A22G A65G U91A | 0.18
U62C A79G G114A | 0.44
U14C U45C U134A | 0.84
U26C G97A C111A | 0.08
U104A U115C U143C | 0.41
U39C A64G A69U A78G U134C | 0
U29C U100C G126A | 2.16
C19U C76U U134C | 1.39
G4A U13C U45C A129G | 1.25
U1C U12C A57G | 0.44
G53A U91C U104C | 0.71
U14C U47G A136G | 0.55

Variant | self-cleavage
U20C U73A A79U | 2.99
U13C C68U U143C | 0.1
U13C U23A U73G | 1.06
U15A A67G U112A U134A | 0.57
A2U U52A A64U U96C A142G | 0.11
U9A G80A U115C | 1.81
U14C A30G A57G A64U U109A | 0.3
U26C G54A A107U | 0.7
U46C U73A A107U A124G | 2.03
A78U C84U A138G A140G | 0.22
U15C U85A A141U | 0.03
U14C U52C U132C A140G | 1.31
A2U A43G A121U | 0.79
A77C U85A U115A | 0.04
U13C G33C U115C | 1.23
U26A U39A U85C | 0.09
U39A C111U A129G | 1.58
A57G G122A U134C | 0.74
U23C A30U A129U U132C | 2.11
U9C U46C A69U A94G A129G A136U | 0
U15C U29C G44C U102C | 1.28
A6G U26A U81C U100C | 1.77
U20A A65G A67G U104A | 0.72
U26G U39A U52C G80U U132C | 0

Variant | self-cleavage
U15C A59G A136C | 0.21
U73A A78U U81A | 2.68
G54A A57U U87C U102C U115C | 0
U20C U26A A59G | 0.3
U5C U23C A77G | 0.81
U14C U39A U96C C99U U115C C128U | 0.04
U13C A24G U52A U62A U130C U143A | 0.41
C19U U62A U81C U100A U134C | 0.08
U9C U15A A24U G35U A94G A121G | 0.48
U5C U73A U85C A136U | 0.32
A6G U87A G105A C146U | 0.32
U85C C113A U119C A141G | 0.17
U13A U73C U96C | 0
U5C C66U A117G A140G | 0.23
U47A U62C U85C U109C A129G | 0
U26A A42G U52A A107U U119C | 2.45
U45C A107U U115C | 1.6
U26C G32U A43G G139A C146A | 1.38
A67G U73A U102A | 0.18
U12G U20C A65G C113U U143C | 0.28
U13G A77G A78G | 2.12
G21A A77U U87C | 0.08
U62C C71U U85C A129U A136G | 0.01
G4A U26C A64C G114A | 0.26

Variant | self-cleavage
U15C A42G U73A | 1.43
A43G U45A A129G U134C | 1.48
U14C C61U A67G G86A | 0.02
U46C A92G A129G | 0.21
A22G G32A A121G | 1.16
U20G U26A U39C A65G | 0.35
U23A U62C A77G G86A | 0.05
U15C C17U C71U A78G | 0.32
U45C A57U A107G A141G | 0.14
A22U U26A U39C | 0.84
C56U U87A U100A U134A | 0.03
U46C A121G U130C | 1.44
U1C U52A U81C U108A A129U A138G | 1.48
G25C A64U A69G U85C | 0
G60A G106A U108C | 0.03
U62C A79G A141G | 0.07
U14C U15C G36A A57G U109C A140G A142G | 0.42
U47A G53A A78G U96A | 0.06
A30G A65U A117U | 0.23
U15C A31U A136U | 1.03
G32A A57U U62A | 0.28
U12C G40C U52A U73A | 1.91
U46C U104A A117U A142G | 1.88
U26C C37U U52A U73A U102C A142G | 1.73

Variant | self-cleavage
U12C G48A A77G | 2.26
A43G U52C A69G A124U | 2.63
U47A A65G U109C U119A | 0.05
A57C U62A U100C | 0.11
G74A U100C U104A | 1.37
A22G U45A U109C | 1.32
A92U A107G A142G | 0.68
U14C A64G U85A | 0.05
U13G A65G U85G | 0
A64G A78G A94G | 0
C18A A31C U87A U96A | 0.15
U73C A77U A79G U87C C131A | 0
U14C U39C U46C | 2
U1C U5C A59G U132A | 0
G4A U12C U52C G89U C110U | 0.14
U14C G25A G86A A117G | 0.07
U13C A31C G48A A77G U81C | 1.84
A67U G72A U119A | 0.09
U15C A65G A124U | 0.04
G32A U104A A142G | 0.65
A43U U47C A64G U96A U130A A141G | 0.11
U47C A64G A141G | 0.36
A30U U46A G88A A140U | 0.03
C71G C84U U134C A142G | 0.03

Variant | self-cleavage
U23C A64G A107G A140G | 0
U23G U52A U104C | 1.18
G33C U46C U52C A129G | 0
U45A U52C U62C U108C | 0.07
G97A A107U U134C | 0.07
U47A U62C U100A U104C | 0.03
U115C U130A U143C | 2.48
U13C U20A U62C C116A | 0
U52C U96A A138G | 0
U39G A65G C90A | 0.05
U47G U62C A141G | 0.08
G25C A50G G72A A121U | 0.76
U87C U102C U134C A138G | 0
U12C A22U U29C U62C U104A A117G | 0.92
A65U U115A A140G | 0.14
U1A A59G G114A U134C | 0.24
U12C A42G A69G G88A A136G | 0.17
G11C U62A A107G U134C G137U | 0.12
U112C A129U A136U | 1.79
U13C G34A A117C | 1.31
U39A U102C U130C A136G | 1.2
A67G C128U A136G | 0.61
A24G A59G U73C | 0.28
